{
  "source": "paper PMC4627809",
  "about": "“Client Proteins and Small Molecule Inhibitors Display Distinct Binding Preferences for Constitutive and Stress-Induced HSP90 Isoforms and Their Conformationally Restricted Mutants” (PLoS ONE, 2015)",
  "binders": {"B1": {"name": "NL-HIF1α (natural protein)", "chain": "not shown", "notes": "hypoxia inducible factor 1α (HIF1α); also called HIF1α fused to NanoLuc luciferase; source: HEK293, transfected, in lysate; not shown: NanoLuc luciferase, N-terminal, kept"}},
  "molecular_target": "T1, FLAG-HSP90α wild type (human, UniProt P07900 1-732)",
  "T1 construct": "HSP90α, stress-inducible cytosolic HSP90 isoform, encoded by HSP90AA1, human; The plasmid list names only pcDNA3-FLAG-HSP90α; the LUMIER methods call the protein 3XFLAG-tagged; also called HSP90α WT; 3XFLAG-HSP90α; source: HEK293, transfected, in lysate",
  "experiment": "LUMIER; HEK293 in 96-well plates co-transfected with NanoLuc-client and 3XFLAG-HSP90α or β; TGNET lysate on anti-FLAG antibody-coated plate 2 h at 4°C; NanoLuc read-out divided by anti-FLAG-HRP read-out = relative interaction strength",
  "conditions": "partners not purified",
  "data": [
    {"binder": "B1", "values": [
      {"measurement": "fold difference in relative interaction strength, HSP90α against HSP90β", "result": "> 3", "unit": "fold"}
    ]}
  ]
}
